Source: PubChem BioAssay AID463173 (ICCB-Longwood Screening Facility, Harvard Medical School, 2010)
The whole screen tested about 52,000 compounds, of which about 1,700 (3.3%) were called active. Rule as the data show it: active = survival mostly below about 52% (no sharp cut-off); inactive = mostly above about 56%. The list shows a part of the results.

What follows are compounds tested on Wild type (assay: growth inhibition of S. aureus wild type versus tarO mutant, primary screen, teichoic acid synthesis inhibitors, RN4220, OD600 (AID 463173)). Details: S. aureus RN4220 wild type/DeltatarO growth, OD600, 18 h, active compounds read low, screened at 18.75 µg/mL (by protocol).

Structure (SMILES) | survival
CCOc1ccc(OCC)c(NC(=O)c2csc3c2CCCC3)c1 | active: -1%
Cc1ccc(-c2nnc(Nc3cccc(O)c3)c3ccccc23)cc1S(=O)(=O)N1CCCCC1 | inactive: 87%
COc1ccc(CCNC(=O)c2cc(S(=O)(=O)N3CCCC(C)C3)cn2C)cc1OC (stereo unspecified) | inactive: 60%
O=C(O)c1ccc2c(c1)N(Cc1ccc(F)cc1Cl)C(=O)c1ccccc1S2 | inactive: 60%
COc1ccc(NC(=O)CCS(=O)(=O)c2nc(-c3ccc4c(c3)OCO4)cc(C(F)(F)F)n2)c(OC)c1 | inactive: 91%
COC(=O)C1C(=O)C2=C(CC1C)Nc1ccccc1NC2c1cc(F)ccc1F (stereo unspecified) | inactive: 123%
CC(CNC(=O)CCCn1c(=O)c2cccn2c2ccccc21)c1ccccc1 (stereo unspecified) | inactive: 54%
CC(C)N(Cc1ccccc1)C(=O)CN1C(=O)COc2ccc(S(=O)(=O)N3CCCCCC3)cc21 | inactive: 93%
CCN(C(=O)c1cnc(N2CCOCC2)c2ccccc12)c1cc(C)ccc1C | inactive: 71%
CCOc1ccccc1NC(=O)c1ccc2c(Cl)c3c(nc2c1)CCCC3 | inactive: 46%
Cc1cc(NC(=O)C(C)(C)Oc2ccc(Cl)cc2)cc(-c2nc3ncccc3o2)c1O | inactive: 92%
CCOc1ccc(-c2nnc(SCC(=O)NCCc3ccccc3)nc2-c2ccc(OCC)cc2)cc1 | inactive: 73%
COc1cccc(CNc2nc3c(-c4cccc(C)c4)nnn3c3ccccc23)c1 | inactive: 84%
CC(=O)Nc1ccc(NC(=O)CCC(=O)c2ccc(C)cc2)cc1 | inactive: 68%
O=C(OCc1cc(=O)n2nc(-c3cccs3)sc2n1)c1ccccc1Br | inactive: 83%
CNc1oc(-c2ccc(COc3ccc(C)cc3)o2)nc1C#N | inactive: 82%
CCOc1ccccc1NC(=O)c1cnc(N2CCOCC2)c2ccccc12 | inactive: 99%
COc1ccc(OCc2nc3c4c(-c5ccc(OC)cc5)c(-c5ccc(OC)cc5)oc4ncn3n2)cc1 | inactive: 71%
CCOC(=O)c1ccc(NC(=O)CSc2nccn2Cc2ccc(OC)cc2)cc1 | inactive: 85%

Structure (SMILES) | survival
Cc1cc(C)cc(C(=O)Nc2nnc3n2CCS3)c1 | inactive: 68%
CC(=O)c1cccc(NC(=O)c2c(C)nn(-c3ccc(F)cc3)c2-n2cccc2)c1 | inactive: 121%
O=C(CSc1ncc2c(n1)-c1cc(Cl)ccc1N(Cc1ccccc1F)S2(=O)=O)Nc1cccc(C(F)(F)F)c1 | inactive: 45%
CCCCCN1C(C(=O)c2ccccc2)=C(NC(C)=O)c2ccccc2S1(=O)=O | inactive: 60%
COC(=O)c1cc(NC(=O)c2ccc3c(c2)N(Cc2cccc(Cl)c2)C(=O)c2ccccc2S3=O)cc(C(=O)OC)c1 (stereo unspecified) | inactive: 75%
CCCn1c2ccccc2c2cnn(CC(=O)Nc3ccc(C)cc3Br)c(=O)c21 | inactive: 87%
Cc1cc2ccccc2n2c(SCC(=O)Nc3cccc(C(F)(F)F)c3)nnc12 | inactive: 87%
Cc1cc(Cl)ccc1OCC(=O)N(Cc1ccc(N(C)C)cc1)CC1CCCO1 (stereo unspecified) | inactive: 106%
CC(C)Nc1ccc(-c2nc(-c3ccccn3)no2)cc1[N+](=O)[O-] | inactive: 72%
CCc1ccc(NC(=O)c2sc3nc(C)c(Cl)c(C)c3c2NC(=O)c2ccccc2)cc1 | inactive: 67%
COc1ccc(C)cc1NC(=O)CCNS(=O)(=O)c1cccc2nonc12 | inactive: 59%
O=C(CSc1ncn[nH]1)Nc1ccc(F)cc1 | inactive: 127%
Cc1cccc(CNC(=O)c2sc3ncnc(N(C)C4CCCCC4)c3c2C)c1 | inactive: 64%
CCN(CC)c1nc(-c2ccccc2Cl)c2cc(Br)ccc2n1 | inactive: 76%
O=C(C1CC1)N1CCN(c2nc3c(F)cc(F)cc3s2)CC1 | inactive: 124%
Cc1nn(-c2ccccc2)c2nc(C3CC3)cc(C(=O)NCc3ccccc3Cl)c12 | inactive: 79%
COCCn1c(COc2cccc(OC)c2)nnc1SCC(=O)NC1CCCC1 | inactive: 98%
O=S(=O)(c1ccc(-c2cnc(C3CC3)o2)cc1)N1CCN(c2cccc(Cl)c2)CC1 | inactive: 71%
Cc1cccc(S(=O)Cc2ccc(C(=O)NC3CCCCCC3)o2)c1 (stereo unspecified) | inactive: 82%

Structure (SMILES) | survival
CCOc1ccccc1C(=O)Nc1cc(-c2ccc(C)cc2)no1 | inactive: 89%
Cc1ccc(C(=O)Nc2ccc(C(=O)OCc3cc(=O)n4c5c(sc4n3)CCCC5)cc2)cc1 | inactive: 88%
Cc1c(-c2ccccc2)n(-c2ccccc2O)c2nc3c(c(=O)n(C)c(=O)n3C)n12 | inactive: 75%
CCc1cccc(C)c1NC(=O)C1=C(C)C(=O)OC12CCC(C)CC2 (stereo unspecified) | inactive: 75%
CCCOc1ccc(C2=NC(c3ccc(F)cc3)=Nc3ccc(OC)cc3N2)cc1 | inactive: 77%
O=C(c1ccc2c(c1)N(Cc1ccccc1)C(=O)c1ccccc1S2=O)N1CCC(Cc2ccccc2)CC1 (stereo unspecified) | inactive: 97%
Cc1ccc2c(c1)c(=O)c(S(=O)(=O)c1ccc(C)c(C)c1)cn2CC(=O)Nc1ccccc1 | inactive: 73%
COc1ccccc1Nc1ncc(C(=O)Nc2ccc(OC)c(OC)c2)c2ccccc12 | inactive: 68%
COc1ccc(NC(=O)NCC2CCN(Cc3ccccc3F)CC2)c(OC)c1 | inactive: 70%
Cc1ccc(Nc2ncnc3c2nc2n3CCCC2)c(Br)c1 | inactive: 111%
COc1ccccc1CNC(=O)c1cnc2sc(N3CCOCC3)nn2c1=O | inactive: 153%
COc1ccc(N2CCN(C(=O)Cn3nc(Cc4cccnc4)c4ccccc4c3=O)CC2)cc1 | inactive: 123%
Cn1cc(C(=O)NCCc2ccc(Cl)cc2)c(=O)c2cc(S(=O)(=O)N3CCCCC3)ccc21 | inactive: 78%
COC(=O)c1ccc(Cn2nnc3c(=O)[nH]c(C4CCCN(S(=O)(=O)c5ccccc5)C4)nc32)cc1 (stereo unspecified) | inactive: 102%
COC(=O)c1cc(S(=O)(=O)N2CCN(c3ccc(F)cc3)CC2)cn1C | active: -6%
COc1ccccc1CNC(=O)c1ccc2c(c1)CCN2S(=O)(=O)c1ccc(Cl)cc1 | inactive: 89%
COc1ccc2nc(N(Cc3cccnc3)C(=O)COc3ccccc3)sc2c1 | inactive: 72%
CCCC(CCC)C(=O)Nc1cccc(-c2nc3cccnc3s2)c1 | inactive: 88%
